Reference: publication PMC4336329 (PLoS ONE, 2015)
Hit rate of the full screen: of about 310,000 compounds, about 2,200 (0.71%) showed an effect of 50% or more. The effect is printed as a negative number. This is one part of the list.

target: human ether-à-go-go-related gene (hERG) potassium channel (human, UniProt Q12809); experiment: primary screen, population patch clamp on CHO cells stably expressing hERG
Sequence (Q12809 whole entry, looked up): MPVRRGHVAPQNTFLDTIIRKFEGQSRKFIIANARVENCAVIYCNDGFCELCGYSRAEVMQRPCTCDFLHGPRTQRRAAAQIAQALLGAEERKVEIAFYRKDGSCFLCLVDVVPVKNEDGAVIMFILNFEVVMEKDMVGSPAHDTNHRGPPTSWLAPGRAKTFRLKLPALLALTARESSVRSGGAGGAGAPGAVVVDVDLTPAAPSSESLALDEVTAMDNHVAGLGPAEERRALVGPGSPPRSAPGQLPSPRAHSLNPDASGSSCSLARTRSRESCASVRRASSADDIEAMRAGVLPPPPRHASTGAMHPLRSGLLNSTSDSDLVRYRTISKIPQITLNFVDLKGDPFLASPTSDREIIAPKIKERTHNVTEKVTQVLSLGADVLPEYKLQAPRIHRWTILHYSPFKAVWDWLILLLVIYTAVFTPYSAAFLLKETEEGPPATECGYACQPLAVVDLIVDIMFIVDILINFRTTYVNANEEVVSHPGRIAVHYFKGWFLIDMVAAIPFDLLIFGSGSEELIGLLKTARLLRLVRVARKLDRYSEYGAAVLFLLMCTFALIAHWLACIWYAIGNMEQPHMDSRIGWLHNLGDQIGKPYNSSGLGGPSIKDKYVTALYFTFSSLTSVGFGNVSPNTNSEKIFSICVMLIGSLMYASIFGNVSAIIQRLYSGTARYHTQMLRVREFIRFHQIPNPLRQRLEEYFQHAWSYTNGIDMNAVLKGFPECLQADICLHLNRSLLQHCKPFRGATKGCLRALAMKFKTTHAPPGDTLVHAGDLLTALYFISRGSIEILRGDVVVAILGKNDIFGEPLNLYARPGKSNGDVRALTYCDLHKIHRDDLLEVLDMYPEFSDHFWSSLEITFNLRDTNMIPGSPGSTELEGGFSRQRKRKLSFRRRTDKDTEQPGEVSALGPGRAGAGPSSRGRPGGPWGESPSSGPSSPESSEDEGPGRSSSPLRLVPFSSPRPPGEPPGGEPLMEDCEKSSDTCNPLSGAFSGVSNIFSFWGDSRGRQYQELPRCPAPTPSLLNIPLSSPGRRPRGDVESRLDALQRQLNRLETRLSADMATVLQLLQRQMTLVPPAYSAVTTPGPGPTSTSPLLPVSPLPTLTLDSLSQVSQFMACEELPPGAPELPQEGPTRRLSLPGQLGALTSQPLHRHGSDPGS

First: Brc1ccc(-c2cn3cccnc3n2)cc1
Second: O=C(Nc1ccc(-c2noc(CCc3ccccc3)n2)cc1)c1cccnc1
The “hERG current change (%, negative = inhibition) at 1uM” value of the first is higher: 16.8% for the first, 1.14% for the second.

First: CCCCNC(=O)c1onc(CSc2cc(C)cc(C)c2)c1C(=O)O
Second: Cc1ccc2cc3cc(C(=O)NCCCN4CCCCCC4)oc3nc2c1
The “hERG current change (%, negative = inhibition) at 1uM” value of the first is higher: 11.7% for the first, -17.1% for the second.

First: CC1=C(C#N)CCC(=O)N1Cc1ccc(C)cc1
Second: CCOC(=O)[C@H]1[C@H]2COc3ccc(C)cc3[C@@H]2N2C(=O)CN(Cc3ccc(C)cc3)C(=O)[C@@]12C
The “hERG current change (%, negative = inhibition) at 1uM” value of the first is lower: 9.78% for the first, 18.9% for the second.

First: CCc1ccc(/C(C)=N/NC(=O)CNC(=O)/C=C/c2ccco2)cc1
Second: CSCCC(NC(=O)/C(=C/c1ccco1)NC(=O)c1ccc(Br)o1)C(=O)O (stereo not shown)
The “hERG current change (%, negative = inhibition) at 1uM” value of the first is lower: 11.5% for the first, 14.2% for the second.

First: CCc1ccc2nc(Nc3ncc(C(C)=O)c(C)n3)nc(C)c2c1
Second: Cc1nc(Cl)sc1C(=O)Nc1ccc(C(C)(C)C)cc1
The “hERG current change (%, negative = inhibition) at 1uM” value of the first is higher: 12.4% for the first, 9.2% for the second.

Going from `COC(=O)c1ccccc1NC(=O)CSc1ccccn1` to `O=C(CN(c1ccccn1)S(=O)(=O)c1ccc(F)cc1)Nc1ccccc1`, the “hERG current change (%, negative = inhibition) at 1uM” value falls from 3.01% to 2.52%.

Going from `O=C(CNS(=O)(=O)c1ccccc1Br)OCC(=O)N1CCc2ccccc21` to `O=C(O)COc1ccc(NC(=O)c2ccc3c(c2)C(=O)N(Cc2ccccc2)C3=O)cc1`, the “hERG current change (%, negative = inhibition) at 1uM” value falls from 7.62% to 1.28%.

First: N/C(CCCN1CCCCC1)=N/O
Second: CCOC(=O)N1CCN(Cc2c(F)cccc2F)CC1
The “hERG current change (%, negative = inhibition) at 1uM” value of the first is lower: 11.2% for the first, 17.3% for the second.

Compared with `Nc1c(N(Cc2ccco2)C(=O)COc2ccccc2F)c(=O)[nH]c(=O)n1Cc1ccccc1`, `O=C(CN(C(=O)CNS(=O)(=O)c1ccc(F)cc1)c1ccc(F)cc1)NCc1ccco1` is higher in “hERG current change (%, negative = inhibition) at 1uM” value: 8.5% for the first, 9.15% for the second.

Going from `O=C(Cc1ccccc1)N/N=C/C=C/c1cccc([N+](=O)[O-])c1` to `CCC(=O)Nc1ccc(C(=O)N/N=C/c2ccc([N+](=O)[O-])cc2)cc1`, the “hERG current change (%, negative = inhibition) at 1uM” value falls from 6.35% to 4.58%.

Going from `COc1ccc(CCNCC(O)Cn2ccc3ccccc32)cc1OC` (stereo not shown) to `COc1ccc(C(=O)C(OC(=O)c2ccc(C)c(NC(C)=O)c2)c2ccccc2)cc1` (stereo not shown), the “hERG current change (%, negative = inhibition) at 1uM” value falls from 11.7% to -6.04%.

Going from `CC(C)(C)NC(=O)CN(C(=O)C(=O)Nc1ccc2c(c1)OCCO2)C(C)(C)C` to `C/C(=N\NC(=O)c1ccc(C)cc1C)c1ccc2c(c1)OCO2`, the “hERG current change (%, negative = inhibition) at 1uM” value falls from 5.41% to 1.41%.

Going from `COC(=O)c1ccc(OC(C)C(=O)c2ccc(C)cc2)cc1` (stereo not shown) to `NC(=O)C1CCN(C(=O)c2ccc(NS(=O)(=O)c3ccc(F)cc3)cc2)CC1`, the “hERG current change (%, negative = inhibition) at 1uM” value rises from 6.22% to 11%.

Going from `Cc1cc(Oc2ccc(N)cn2)cc(C)c1Cl` to `Cc1cc(-c2ccc(Cl)cc2)c(C#N)c(N)n1`, the “hERG current change (%, negative = inhibition) at 1uM” value rises from -2.19% to 0.592%.

Going from `CN(CC(=O)NC1CCCCCC1)S(=O)(=O)c1ccc(Br)cc1` to `COc1ccc(S(=O)(=O)N2CCCCC2C(=O)O)cc1` (stereo not shown), the “hERG current change (%, negative = inhibition) at 1uM” value rises from 8.35% to 9.29%.

Going from `CCOC(=O)N1CCN(C(=O)COc2ccc(Cl)cc2)CC1` to `O=C(NCC(=O)N1CCOCC1)c1ccc(Cl)cc1`, the “hERG current change (%, negative = inhibition) at 1uM” value falls from 6.23% to -3.08%.

Going from `CCCCN(C(=O)c1ccc2c(c1)OCO2)c1c(N)n(CC(C)C)c(=O)[nH]c1=O` to `CN(C)CCOC(=O)c1ccc2[nH]c3c(c2c1)CSCC3.Cl`, the “hERG current change (%, negative = inhibition) at 1uM” value rises from 2.16% to 16.2%.

Going from `O=C1CC(C(=O)Nc2ccc(O)c(C(=O)O)c2)C(c2ccccc2)O1` (stereo not shown) to `CC(C)C(=O)Nc1ccc2nn(-c3ccccc3)nc2c1`, the “hERG current change (%, negative = inhibition) at 1uM” value rises from -4.73% to 8.09%.

First: C[C@@H]1CN(C(=O)c2nc3ccc(Cl)cn3c2CN[C@H]2CCCCNC2=O)C[C@H](C)O1
Second: O=C(O)[C@@H]1CCCN(S(=O)(=O)c2cccc3cccnc23)C1
The “hERG current change (%, negative = inhibition) at 1uM” value of the first is lower: 7.56% for the first, 11.2% for the second.

Compared with `CCCCCCC1CCC(c2nc(-c3ccncc3)no2)CC1` (stereo not shown), `CCOCCCN(CCC#N)C(=O)C1CCN(S(=O)(=O)c2ccc(-n3cnnn3)cc2)CC1` is lower in “hERG current change (%, negative = inhibition) at 1uM” value: 4.29% for the first, 2.51% for the second.

First: Cc1cc(SCCOc2ccccc2)nc(N)n1
Second: O=C(c1ccccc1)c1ncc[nH]1
The “hERG current change (%, negative = inhibition) at 1uM” value of the first is lower: 11.6% for the first, 18.1% for the second.

Compared with `COc1ccccc1-n1c(=S)sc2c(=O)n(Cc3ccco3)c(SC)nc21`, `O=C1Nc2ccccc2O/C1=C\c1c(F)cccc1Cl` is higher in “hERG current change (%, negative = inhibition) at 1uM” value: -12.1% for the first, 14.9% for the second.

Compared with `N#CC(C#N)=CNc1cccnc1`, `CN1CCCC1c1cccnc1` (stereo not shown) is lower in “hERG current change (%, negative = inhibition) at 1uM” value: 15.9% for the first, 15.8% for the second.

Compared with `CCN(CC1CCCN(CCc2cccc(F)c2)C1)C(=O)c1cc2ccccc2o1` (stereo not shown), `Cc1ccc(S(=O)(=O)N2CCN(C(=O)CCc3c[nH]c4ccccc34)CC2)cc1` is higher in “hERG current change (%, negative = inhibition) at 1uM” value: -64.7% for the first, 6.52% for the second.

Compared with `O=C(NNC(=S)NCc1ccco1)c1ccc(Cl)s1`, `N#CCC(=O)Nc1ccc(C(=O)N2CCN(c3ccccn3)CC2)cc1` is higher in “hERG current change (%, negative = inhibition) at 1uM” value: 8.14% for the first, 16.3% for the second.

Going from `COc1ccccc1NS(=O)(=O)c1cc(NC(=O)C2CCCC2)ccc1N1CCOCC1` to `COc1ccc(S(=O)(=O)Nc2cccc(C(C)=O)c2)cc1Br`, the “hERG current change (%, negative = inhibition) at 1uM” value falls from 10.3% to 4.98%.

Going from `COCCNC(=O)c1ccc(N2CC3CC(C2)c2cccc(=O)n2C3)c([N+](=O)[O-])c1` (stereo not shown) to `CN(C)CCCNC(=O)C1(O)c2cc(Br)ccc2NC(=O)N1c1c(F)cccc1F` (stereo not shown), the “hERG current change (%, negative = inhibition) at 1uM” value falls from 16.1% to -2.07%.

Compared with `N#Cc1c(N)n(-c2ccc(C(=O)O)cc2)c2nc3ccccc3nc12`, `Cc1ccc(-n2nc3c(SCCN4CCOCC4)nnc(C)c3c2C)cc1` is lower in “hERG current change (%, negative = inhibition) at 1uM” value: 7.7% for the first, -5.1% for the second.

Compared with `Cn1c(=O)c2c(nc3sccn32)n(C)c1=O`, `CCOc1ccc(NC(=O)CN(C)C(=O)c2cc3c(s2)CCC(C)C3)cc1OCC` (stereo not shown) is higher in “hERG current change (%, negative = inhibition) at 1uM” value: -3.93% for the first, 14% for the second.
